# Source: publication PMC12136788
# The list shows a part of the results.
# B1: chr3:122573770:122573871:+|3pUTR|ENSG00000163840|msi1|total|mutant (ssRNA)
# RNA: GGGAGUUCUACAGUCCGACGAUCUAUUGGGUGCACUUGCCCUGCCACAGUAAUGCUAUAUAUUUCUGAGCAUUGUUUUUCUCCCGAUAAUUUUAUAUUUUUGAGUAUACCCCACUUCCAAGUGUUUUUUGUUUUGUUUUGCUUCAACAGAGGAUUGAGCAUCA
# B2: chr10:50305585:50307321:-|three_prime_utr|ENSG00000198964|control|control|control (ssRNA)
# RNA: GGGAGUUCUACAGUCCGACGAUCUGAAAAGAAUGUCCAAGGAAUUGUACCUCGAUCUUACCAUUGGCCUUUCCCCUGGCCAGUAGUCCACCUCAGUAGGCAAGUUAAAUACAGCCGGCUGGUGAAUGACACAUAACAGCUGUACAACAGAGGAUUGAGCAUCA
# B3: chr7:7607225:7607326:+|3pUTR|ENSG00000164654|msi1|total|mutant (ssRNA)
# RNA: GGGAGUUCUACAGUCCGACGAUCUUUGAGUGAUUUUGAUAUGCUUCACAGAGACAAAUGCUGCCAAAAUAAACAUCGAAGUACCGACAUGAGUUCUGUUCAGCAGGUUGAAAAGUCUGAUUCCGAAAAACUUUCUAAGUUUUGCAACAGAGGAUUGAGCAUCA
# B4: ENSG00000134243:stop:overlap|stop_codon|ENSG00000134243|stop_codon|NA|stop_codon (ssRNA)
# RNA: GGGAGUUCUACAGUCCGACGAUCCAGCCUCCCACACUAAUAAAAGUGGUUAUCAUGAUGACUCAGAUGAGGACCUCUUGGAAUAGCUCUUCAGAGGAGCUGGACCCAGCAUGGAUGGUGGAACCACAGUACCUCUUACACUCCCAACAGAGGAUUGAGCAUCA
# B5: chr2:30158716:30158817:+|CDS|ENSG00000119801|msi1|FALSE|bound_elsewhere (ssRNA)
# RNA: GGGAGUUCUACAGUCCGACGAUCGUUUGCCACUGAAGACAGCCAGCGAUAUAAGGAAGGCCGCGUGAUCCUGGAACGUGCUCUAGUUCGAGAGAGUGAGGGCUUUGAGGAGCAUGUACCAUCUGAUAACUCUUGAAGAUACAGCAACAGAGGAUUGAGCAUCA
# B6: chr16:11691289:11692082:-|CDS|ENSG00000153066|control|control|control (ssRNA)
# RNA: GGGAGUUCUACAGUCCGACGAUCCCAAGCUCCGUUCCUCACAUUGAGGAGAACAGGUAUCUCUUUCCAGAAGUGGACAUGACUAGCACAAACUUCACAGGCCUGAGCUGCAGAACCAACAAGACUCUCAACAUCUACCUUUUGCAACAGAGGAUUGAGCAUCA
# Target: MSI1 full-length (mouse, UniProt Q61474 1-362)
# Sequence of UniProt Q61474 (Q61474 whole entry): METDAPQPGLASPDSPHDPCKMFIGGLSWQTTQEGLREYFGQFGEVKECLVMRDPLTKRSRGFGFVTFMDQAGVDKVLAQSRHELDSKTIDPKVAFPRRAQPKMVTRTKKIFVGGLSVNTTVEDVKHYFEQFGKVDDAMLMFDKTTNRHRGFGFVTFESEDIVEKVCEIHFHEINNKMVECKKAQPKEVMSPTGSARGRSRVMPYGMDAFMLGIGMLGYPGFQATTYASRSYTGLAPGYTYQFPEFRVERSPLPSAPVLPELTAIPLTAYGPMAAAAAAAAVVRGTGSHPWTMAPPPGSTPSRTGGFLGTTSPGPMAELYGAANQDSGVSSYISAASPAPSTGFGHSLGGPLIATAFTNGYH
# Assay: nsRBNS (natural sequence RNA bind-n-seq); RBNS binding buffer (assumed for nsRBNS): 25 mM Tris pH 7.5, 150 mM KCl, 3 mM MgCl2, 0.01% Triton X-100, 500 ug/ml BSA, 20 U/ml SUPERase-In, 4 C; UNK is unkempt and MSI1 is Musashi-1; names of the RNAs are library labels; protein concentration not given here; high values mean tight binding
row,Binder,binding signal [enrichment R]
1,B1,5.59
2,B2,0.421
3,B3,0.249
4,B4,0.54
5,B5,0.47
6,B6,0.721
